At least one structure is not confirmed: it was looked up by name or label, or the drawing left a doubt. Marks after values point to notes of the source that are not given here. Numbered stars: 1 amine (or outer) side, 2 acyl side, 3 side chain; on linkers, the order of the positions; unused ones are H or OH. Peptide text beside a SMILES is read from it. * marks the point of attachment. C20 diacid = O=C(O)CCCCCCCCCCCCCCCCCCC(=O)*; C18 diacid = O=C(O)CCCCCCCCCCCCCCCCC(=O)*; γGlu = O=C(O)[C@H](CCC(=O)[*:2])N[*:1]
Legend:
[1] = Assay (XIV) effect on body weight, DIO rat model; type: in vivo, Diet-induced obese (DIO) male Sprague Dawley rats; conditions: DIO rats; for Absolute BW (g) Day 0: Day 0 (baseline), mean ± SEM; for reduction in body weight: monotherapy at the given doses (liraglutide 0.1 mg/kg, EX. #2 3.7 μg/kg)
[2] = test system: ad libitum fed Sprague Dawley (SD) rats; test: Assay (I) efficacy testing on appetite (food intake), ad libitum fed rat model; type: in vivo; conditions: for PD rat 3 nmol/kg Reduction (%) 24-48 h (food intake reduction): 24-48 hours after administration

Compound	Absolute BW (g) Day 0 [1]	reduction in body weight [1]	PD rat 3 nmol/kg Reduction (%) 24-48 h (food intake reduction) [2]	also measured
CC(C)C[C@H](NC(=O)[C@H](C)NC(=O)[C@H](C)NC(=O)[C@@H](NC(=O)[C@H](CO)NC(=O)[C@H](CC(C)C)NC(=O)[C@H](CCC(=O)O)NC(=O)[C@H](CO)NC(=O)[C@H](C)NC(=O)[C@H](CCC(=O)O)NC(=O)CCCCCCCCCCCCCCCCC(=O)O)[C@@H](C)O)C(=O)NCC(=O)N[C@@H](CCCNC(=N)N)C(=O)N[C@@H](CC(C)C)C(=O)N[C@@H](CO)C(=O)N[C@@H](C)C(=O)N[C@@H](CCC(=O)O)C(=O)N[C@@H](CC(C)C)C(=O)N[C@@H](Cc1c[nH]cn1)C(=O)N[C@@H](CCC(=O)O)C(=O)N[C@@H](CC(C)C)C(=O)N[C@@H](C)C(=O)N[C@H](C(=O)N[C@@H](CC(C)C)C(=O)N1CCC[C@H]1C(=O)N[C@@H](CCCNC(=N)N)C(=O)N[C@H](C(=O)N[C@@H](CCC(=O)O)C(=O)N[C@H](C(=O)NCC(=O)N1CCC[C@H]1C(=O)N[C@@H](CCC(=O)O)C(=O)N[C@@H](CO)C(=O)N1CCC[C@H]1C(N)=O)[C@@H](C)O)[C@@H](C)O)[C@@H](C)O [Ex. #2, [N-terminal(C18 diacid)]mimylin] ({C18 diacid}-EASELSTAALGRLSAELHELATLPRTETGPESP-NH2)	815.5 ± 33.3^a g	10.9%		additional reduction in body weight relative to monotherapy with liraglutide ([1]; EX. #2 added on day 15 to liraglutide regimen, by day 28): 9.7%
CCCCCCCCCCCCCCCC(=O)N[C@@H](CCC(=O)NCCCC[C@H](NC(=O)[C@H](C)NC(=O)[C@H](C)NC(=O)[C@H](CCC(N)=O)NC(=O)CNC(=O)[C@H](CCC(=O)O)NC(=O)[C@H](CC(C)C)NC(=O)[C@H](Cc1ccc(O)cc1)NC(=O)[C@H](CO)NC(=O)[C@H](CO)NC(=O)[C@@H](NC(=O)[C@H](CC(=O)O)NC(=O)[C@H](CO)NC(=O)[C@@H](NC(=O)[C@H](Cc1ccccc1)NC(=O)[C@@H](NC(=O)CNC(=O)[C@H](CCC(=O)O)NC(=O)[C@H](C)NC(=O)[C@@H](N)Cc1cnc[nH]1)[C@@H](C)O)[C@@H](C)O)C(C)C)C(=O)N[C@@H](CCC(=O)O)C(=O)N[C@@H](Cc1ccccc1)C(=O)N[C@H](C(=O)N[C@@H](C)C(=O)N[C@@H](Cc1c[nH]c2ccccc12)C(=O)N[C@@H](CC(C)C)C(=O)N[C@H](C(=O)N[C@@H](CCCNC(=N)N)C(=O)NCC(=O)N[C@@H](CCCNC(=N)N)C(=O)NCC(=O)O)C(C)C)[C@@H](C)CC)C(=O)O [Liraglutide, N^ε26-[(4S)-4-carboxy-4-(hexadecanoylamino)butanoyl]-[Arg^34]-GLP-1-(7-37)-peptide]	824.6 ± 44.7^a g	5.9%		Absolute BW (g) Day 15 ([1]; once daily s.c., Day 15, mean ± SEM): 774.2 ± 42.9^a g; Absolute BW (g) Day 28 ([1]; once daily s.c., Day 28, mean ± SEM): 773.9 ± 41.2^a g
CC(C)C[C@H](NC(=O)[C@H](CCC(=O)O)NC(=O)[C@H](Cc1c[nH]cn1)NC(=O)[C@H](CC(C)C)NC(=O)[C@H](CCC(=O)O)NC(=O)[C@H](C)NC(=O)[C@H](CO)NC(=O)[C@H](CC(C)C)NC(=O)[C@H](CCCNC(=N)N)NC(=O)CNC(=O)[C@H](CC(C)C)NC(=O)[C@@H](NC(=O)[C@H](C)NC(=O)[C@@H](NC(=O)[C@H](CO)NC(=O)[C@H](CC(C)C)NC(=O)[C@H](CCC(=O)O)NC(=O)[C@@H]1CCCN1C(=O)[C@H](C)NC(=O)[C@H](CCC(=O)O)NC(=O)CCCCCCCCCCCCCCCCC(=O)O)[C@@H](C)O)C(C)C)C(=O)N[C@@H](C)C(=O)N[C@H](C(=O)N[C@@H](CC(C)C)C(=O)N1CCC[C@H]1C(=O)N[C@@H](CCCNC(=N)N)C(=O)N[C@H](C(=O)N[C@@H](CCC(=O)O)C(=O)N[C@H](C(=O)NCC(=O)N1CCC[C@H]1C(=O)N[C@@H](CCC(=O)O)C(=O)N[C@@H](CO)C(=O)N1CCC[C@H]1C(N)=O)[C@@H](C)O)[C@@H](C)O)[C@@H](C)O [compound 29, [N-terminal(C18 diacid), 3P, 9V]mimylin] ({C18 diacid}-EAPELSTAVLGRLSAELHELATLPRTETGPESP-NH2)			0%	
CC(C)C[C@H](NC(=O)[C@H](CCC(=O)O)NC(=O)[C@H](Cc1c[nH]cn1)NC(=O)[C@H](CC(C)C)NC(=O)[C@H](CCC(=O)O)NC(=O)[C@H](C)NC(=O)[C@H](CO)NC(=O)[C@H](CC(C)C)NC(=O)[C@H](CCCNC(=N)N)NC(=O)CNC(=O)[C@H](CC(C)C)NC(=O)[C@@H](NC(=O)[C@H](C)NC(=O)[C@@H](NC(=O)[C@@H](NC(=O)[C@H](CC(C)C)NC(=O)[C@H](CCC(=O)O)NC(=O)[C@H](CO)NC(=O)[C@H](C)NC(=O)CC[C@H](NC(=O)CCCCCCCCCCCCCCCCC(=O)O)C(=O)O)[C@@H](C)O)[C@@H](C)O)C(C)C)C(=O)N[C@@H](C)C(=O)N[C@H](C(=O)N[C@@H](CC(C)C)C(=O)N1CCC[C@H]1C(=O)N[C@@H](CCCNC(=N)N)C(=O)N[C@H](C(=O)N[C@@H](CCC(=O)O)C(=O)N[C@H](C(=O)NCC(=O)N[C@@H](CO)C(=O)NCC(=O)N[C@@H](CO)C(=O)N1CCC[C@H]1C(N)=O)[C@@H](C)O)[C@@H](C)O)[C@@H](C)O [compound 85, [N-terminal(C18 diacid-gGlu), des1, 6T, 9V, 30S, 31G]mimylin] ({C18 diacid-γGlu}-ASELTTAVLGRLSAELHELATLPRTETGSGSP-NH2)			24%	PD rat 3 nmol/kg reduction (%) 0-24 h (food intake reduction) ([2]; 0-24 hours after administration): 44%
CC(C)C[C@H](NC(=O)CNC(=O)[C@H](CO)NC(=O)[C@H](CC(C)C)NC(=O)[C@H](CCC(=O)O)NC(=O)CC[C@H](NC(=O)CCCCCCCCCCCCCCCCCCC(=O)O)C(=O)O)C(=O)N[C@@H](CO)C(=O)N[C@H](C(=O)N[C@@H](CC(C)C)C(=O)N[C@H](C(=O)N[C@@H](CC(C)C)C(=O)NCC(=O)N[C@@H](CCCNC(=N)N)C(=O)N[C@@H](CC(C)C)C(=O)N[C@@H](CO)C(=O)N[C@@H](CCC(N)=O)C(=O)N[C@@H](CCC(=O)O)C(=O)N[C@@H](CC(C)C)C(=O)N[C@@H](Cc1c[nH]cn1)C(=O)N[C@@H](CCC(=O)O)C(=O)N[C@@H](CC(C)C)C(=O)N[C@@H](CCC(N)=O)C(=O)N[C@H](C(=O)N[C@@H](Cc1ccc(O)cc1)C(=O)N1CCC[C@H]1C(=O)N[C@@H](CCCNC(=N)N)C(=O)N[C@H](C(=O)NCC(=O)N[C@H](C(=O)NCC(=O)N[C@@H](CO)C(=O)NCC(=O)N[C@H](C(=O)N[C@@H](Cc1ccc(O)cc1)C(N)=O)[C@@H](C)O)[C@@H](C)O)[C@@H](C)O)[C@@H](C)O)C(C)C)[C@@H](C)O [compound 129, [N-terminal(C20 diacid-gGlu), 2L, 4G, 8L, 9V, 15Q, 21Q, 23Y, 27G, 30S, 31G, 32T, 33Y]mimylin] ({C20 diacid-γGlu}-ELSGLSTLVLGRLSQELHELQTYPRTGTGSGTY-NH2)			0%	

— US9593149B2, “Amylin and calcitonin receptor agonist” (Novo Nordisk A/S, priority 2014, dated 2017)
